Results reported in the supplement of paper PMC10126150.
Values marked as one replicate rest on one cluster of the flow cell; about a third of the high ones do not repeat.

Test system: ATP
Experiment: switch fluorescence ratio, 500 uM ATP over buffer (Cy3 cluster intensity, sum of 5 cycles each) (fold (ratio)); higher = stronger signal-on switching upon ATP binding; sequences stand for … in TCGTCGGCAGCGTCAGATGTGTATAAGAGACAGTTTTTTTTTTTTTTTTTTTTTTTTT…TC
Settings: aptamer strand: ATP DNA aptamer (quencher-CACCTGGGGGAGTATTGCGGAGGAAGG + anchor), 100 nM annealed; ATP concentration: 500 uM; one replicate
How it was run: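 Cy3-labelled switching-strand clusters on a modified Illumina MiSeq flow-cell were annealed to 100 nM quencher-labelled ATP aptamer, imaged in selection buffer, then imaged after 15 min with 500 uM ATP at 22 °C. Five buffer/ATP cycles ran, with NaOH stripping and re-annealing between them. The fluorescence ratio is summed target-cycle over summed buffer-cycle Cy3 intensity per cluster, averaged per switch-domain sequence. Clusters outside 100-1000 RFU were excluded.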
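Note: ATP exposure 15 min at 22 °C before imaging.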

Sequence TCTTACGTA has a switch fluorescence ratio of 1.09.
AGGAAGCTGA gave a switch fluorescence ratio of 0.995.
Sequence TAGTACCGCG has a switch fluorescence ratio of 0.99.
With TCTCAAAAA the switch fluorescence ratio was 1.07.
In the case of TGAGGAGCG, the switch fluorescence ratio is reported as 0.951.
For TGCCTTAGCA, the switch fluorescence ratio was 1.02.
Work on TTCTTTAAGA yielded a switch fluorescence ratio of 0.979.
TTATCCTCCC gave a switch fluorescence ratio of 1.39.
With AATCGAGGTC the switch fluorescence ratio was 0.959.
In the case of GACTAGGCTA, the switch fluorescence ratio is reported as 1.04.
With GTTTTAAATT the switch fluorescence ratio was 0.981.
In the case of TAACTCAATT, the switch fluorescence ratio is reported as 1.
Work on CCCTCCATTG yielded a switch fluorescence ratio of 1.61.
For CAGTACAAA, the switch fluorescence ratio was 1.01.
ATTATCTGAA was tested, and the switch fluorescence ratio was 1.02.
With TGAATCGAAT the switch fluorescence ratio was 0.972.
TAGACGTGTT was tested, and the switch fluorescence ratio was 1.02.
TTACAATTGT showed a switch fluorescence ratio of 1.
CCCATCTTAT gave a switch fluorescence ratio of 1.01.
Sequence TGGCTTCCTC has a switch fluorescence ratio of 2.76.
In the case of TGTCGTATCG, the switch fluorescence ratio is reported as 0.982.
Sequence TTATATCTGG has a switch fluorescence ratio of 1.05.
TATTGTTTCT showed a switch fluorescence ratio of 1.01.
GTGATTCGTA was tested, and the switch fluorescence ratio was 0.989.
In the case of GACTGGGATT, the switch fluorescence ratio is reported as 0.98.
With CTTTGAGAA the switch fluorescence ratio was 0.98.
TGGCCCGTTG showed a switch fluorescence ratio of 1.04.
For AATATAAGTG, the switch fluorescence ratio was 1.02.
With TATGTCAGCA the switch fluorescence ratio was 0.984.
CTAGTAATTA gave a switch fluorescence ratio of 1.
ATGAGGAGT gave a switch fluorescence ratio of 0.983.
For AGATGGGAAG, the switch fluorescence ratio was 1.
For CACTTAGAAA, the switch fluorescence ratio was 1.01.
For CGGCTCCGGC, the switch fluorescence ratio was 1.03.
GTACTAGATA gave a switch fluorescence ratio of 1.01.
With AGATTCGGAC the switch fluorescence ratio was 1.02.
For CATCAAATTT, the switch fluorescence ratio was 1.07.
In the case of GGATTCGCAC, the switch fluorescence ratio is reported as 1.6.
For CCTAAATTAA, the switch fluorescence ratio was 1.
Work on GTCATCTGAG yielded a switch fluorescence ratio of 1.02.
Sequence TGGAAATC has a switch fluorescence ratio of 0.975.
TGTGGAAACC showed a switch fluorescence ratio of 1.07.
Work on AACGCTTAG yielded a switch fluorescence ratio of 1.02.
With ATGACTTCGT the switch fluorescence ratio was 1.
For AAGGACAATT, the switch fluorescence ratio was 1.
TTTTCGCGGC gave a switch fluorescence ratio of 1.11.
ATGTGGTGAG was tested, and the switch fluorescence ratio was 1.02.
TTTAAGCGA was tested, and the switch fluorescence ratio was 1.01.
With TCCAACAAGA the switch fluorescence ratio was 1.3.
TAAGACGCGA gave a switch fluorescence ratio of 0.984.
ATATTCCTCC showed a switch fluorescence ratio of 1.91.
For GAGGAGGT, the switch fluorescence ratio was 0.934.
AACATTTCTG gave a switch fluorescence ratio of 1.01.
Sequence AGGATGGGTA has a switch fluorescence ratio of 1.01.
GAATAACAAC gave a switch fluorescence ratio of 1.04.
For GTAGTTATGT, the switch fluorescence ratio was 0.972.
GGCCGTAGAG was tested, and the switch fluorescence ratio was 1.
Sequence GATAGGGTCA has a switch fluorescence ratio of 1.04.
Sequence GGTCCTCTGC has a switch fluorescence ratio of 1.31.
Work on ACAGGGCAAT yielded a switch fluorescence ratio of 0.959.
In the case of AAGGCAGGCC, the switch fluorescence ratio is reported as 1.01.
In the case of AGATGTATTA, the switch fluorescence ratio is reported as 0.952.
GGTTAAACAT gave a switch fluorescence ratio of 1.07.
With GGTGGTGCG the switch fluorescence ratio was 0.987.
CACCTGCGAA gave a switch fluorescence ratio of 1.15.
With GTTTTATAAG the switch fluorescence ratio was 0.984.
Sequence TGCTGAGTAT has a switch fluorescence ratio of 0.979.
TTTAAATACC gave a switch fluorescence ratio of 1.07.
CGCCCATGCG gave a switch fluorescence ratio of 1.
Sequence GTCGAGATGG has a switch fluorescence ratio of 0.993.
TATAAGGGC was tested, and the switch fluorescence ratio was 1.02.
Sequence GGGGTCACAC has a switch fluorescence ratio of 0.992.
Work on CCGTCGTCGG yielded a switch fluorescence ratio of 1.02.
With ACACACGTGC the switch fluorescence ratio was 1.29.
In the case of ACAGTGGGGT, the switch fluorescence ratio is reported as 1.02.
Work on TATGCTCATG yielded a switch fluorescence ratio of 0.966.
Work on TTCGGCAAGA yielded a switch fluorescence ratio of 1.46.
With GCCGGAATAT the switch fluorescence ratio was 1.78.
In the case of CCATTCTCGC, the switch fluorescence ratio is reported as 1.09.
ACATTGTATC was tested, and the switch fluorescence ratio was 1.02.
With GACTTGTTCC the switch fluorescence ratio was 1.01.
GATGCCCTGT was tested, and the switch fluorescence ratio was 1.02.
In the case of AATGTACAT, the switch fluorescence ratio is reported as 0.993.
TGTTAATAGG showed a switch fluorescence ratio of 0.993.
In the case of CTTCGTGTGG, the switch fluorescence ratio is reported as 1.02.
